Laboratory results published in the supplement of paper PMC4967469.
Lines with a small IC50 respond at low doses; fits outside the tested doses are given as limits. For AUC the same curve is integrated over the 256-fold range of doses and scaled to a fraction: 1 means no effect, lower means more sensitive. For some assays here: Where the top dose is marked as inferred, it was calculated from the reported fits. For some assays here: An entry number marks a drug with two screens in the source, which often give different values.

Columns and labels:
Assay in all cases: Viability of human cancer cell lines after 72 h of drug (GDSC screen)
CHIR-99021 = compound: Cc1cnc(-c2cnc(NCCNc3ccc(C#N)cn3)nc2-c2ccc(Cl)cc2Cl)[nH]1 [CHIR-99021]
Procedure: (§1)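 Human cancer cell lines in 384-well plates, medium with 10% serum, drug for 72 h over a 256-fold dose range (nine 2-fold or five 4-fold steps up to the top dose). Adherent lines were fixed and stained with the nucleic acid dye Syto60, suspension lines read with resazurin; signal relative to control wells, capped at 0 and 100%. One two-parameter sigmoid per drug and line, fitted in a mixed model over all curves with the slope shared within a line.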

ABT-888 = compound: C[C@]1(c2nc3c(C(N)=O)cccc3[nH]2)CCCN1 [ABT-888]; details: top dose 5 µM; top dose inferred
Procedure: as §1

ABT-869 = compound: Cc1ccc(F)c(NC(=O)Nc2ccc(-c3cccc4[nH]nc(N)c34)cc2)c1 [ABT-869]; details: top dose 1.024 µM; top dose inferred
Procedure: as §1

KU-55933 = compound: O=c1cc(-c2cccc3c2Sc2ccccc2S3)oc(N2CCOCC2)c1 [KU-55933]; details: top dose 10 µM
Procedure: as §1

MPS-1-IN-1 = compound: COc1cc(N2CCC(O)CC2)ccc1Nc1cc(Nc2ccccc2S(=O)(=O)C(C)C)c2cc[nH]c2n1 [MPS-1-IN-1]; details: top dose 20 µM; top dose inferred
Procedure: as §1

Cytarabine = compound: Nc1ccn([C@@H]2O[C@H](CO)[C@@H](O)[C@@H]2O)c(=O)n1 [Cytarabine]; details: top dose 2 µM
Procedure: as §1

Zibotentan = compound: COc1nc(C)cnc1NS(=O)(=O)c1cccnc1-c1ccc(-c2nnco2)cc1 [Zibotentan]; details: top dose 20 µM; top dose inferred
Procedure: as §1

(5Z)-7-Oxozeaenol = compound: COc1cc(O)c2c(c1)/C=C/C[C@H](O)[C@H](O)C(=O)/C=C\C[C@H](C)OC2=O [(5Z)-7-Oxozeaenol]; details: top dose 10 µM; top dose inferred
Procedure: as §1

CP466722 = compound: COc1cc2ncnc(-n3nc(-c4ccccn4)nc3N)c2cc1OC [CP466722]; details: top dose 16 µM; top dose inferred
Procedure: as §1

QL-X-138 = compound: C=CC(=O)Nc1cc(-n2c(=O)ccc3cnc4ccc(-c5cn[nH]c5)cc4c32)ccc1C [QL-X-138]; details: top dose 10.24 µM; top dose inferred
Procedure: as §1

GSK269962A = compound: CCn1c(-c2nonc2N)nc2cnc(Oc3cccc(NC(=O)c4ccc(OCCN5CCOCC5)cc4)c3)cc21 [GSK269962A]; details: top dose inferred
Procedure: as §1

[1] = top dose 2.56 µM, screen: GDSC drug entry 154
[2] = top dose 10 µM, screen: GDSC drug entry 1241, top dose inferred
[3] = top dose 5 µM, screen: GDSC drug entry 1192
[4] = top dose 2.5 µM, screen: GDSC drug entry 127

Row | Cell Line | AUC (CHIR-99021; [1]) | IC50 (CHIR-99021; [1]) [µM] | AUC (CHIR-99021; [2]) | IC50 (CHIR-99021; [2]) [µM] | AUC (ABT-888) | IC50 (ABT-888) [µM] | AUC (ABT-869) | IC50 (ABT-869) [µM] | AUC (KU-55933) | IC50 (KU-55933) [µM] | AUC (MPS-1-IN-1) | IC50 (MPS-1-IN-1) [µM] | AUC (Cytarabine) | IC50 (Cytarabine) [µM] | AUC (Zibotentan) | IC50 (Zibotentan) [µM] | AUC ((5Z)-7-Oxozeaenol) | IC50 ((5Z)-7-Oxozeaenol) [µM] | AUC (CP466722) | IC50 (CP466722) [µM] | AUC (QL-X-138) | IC50 (QL-X-138) [µM] | AUC (GSK269962A; [3]) | IC50 (GSK269962A; [3]) [µM] | AUC (GSK269962A; [4]) | IC50 (GSK269962A; [4]) [µM]
1 | HCC1143 (breast, adherent) | 0.913 | > 2.56 | 0.977 | > 10 | 0.98 | > 5 | 0.977 | > 1.02 | 0.941 | > 10 | 0.817 | 17.4 | 0.828 | 1.98 | 0.973 | > 20 | 0.737 | 3.98 | 0.768 | 8.44 | 0.749 | 4.54 | 0.969 | > 5 | – | –
2 | Hey (ovary, adherent) | – | – | 0.901 | > 10 | 0.974 | > 5 | 0.985 | > 1.02 | 0.978 | > 10 | 0.857 | 14.8 | 0.429 | 0.0808 | 0.987 | > 20 | 0.462 | 0.495 | 0.813 | 8.01 | 0.595 | 1.15 | 0.873 | 4.33 | – | –
3 | Hs746T (stomach, adherent) | 0.981 | > 2.56 | 0.952 | > 10 | 0.977 | > 5 | 0.98 | > 1.02 | 0.95 | > 10 | 0.981 | > 20 | 0.817 | 1.66 | 0.963 | > 20 | 0.663 | 2.09 | 0.907 | > 16 | 0.519 | 0.734 | 0.934 | > 5 | – | –
4 | HuO-3N1 (osteosarcoma, adherent) | 0.979 | > 2.56 | 0.882 | > 10 | 0.981 | > 5 | 0.91 | > 1.02 | 0.929 | > 10 | 0.965 | > 20 | 0.82 | 1.65 | 0.982 | > 20 | 0.833 | 9.55 | 0.903 | > 16 | 0.791 | 6.32 | 0.938 | > 5 | – | –
5 | JHOS-3 (ovary, adherent) | – | – | 0.908 | > 10 | 0.984 | > 5 | 0.977 | > 1.02 | 0.977 | > 10 | 0.939 | > 20 | 0.823 | 1.64 | 0.973 | > 20 | 0.753 | 4.18 | 0.891 | > 16 | 0.751 | 4.22 | 0.898 | > 5 | – | –
6 | KMS-11 (myeloma, suspension) | – | – | 0.895 | 9.03 | 0.988 | > 5 | 0.991 | > 1.02 | 0.972 | > 10 | 0.785 | 7.27 | 0.939 | > 2 | 0.99 | > 20 | 0.629 | 1.34 | 0.867 | 11 | 0.801 | 4.18 | 0.886 | 4.11 | – | –
7 | KP-2 (pancreas, adherent) | 0.985 | > 2.56 | 0.97 | > 10 | 0.98 | > 5 | 0.943 | > 1.02 | 0.882 | > 10 | 0.92 | > 20 | 0.923 | > 2 | 0.985 | > 20 | 0.533 | 0.776 | 0.895 | > 16 | 0.667 | 1.95 | 0.964 | > 5 | – | –
8 | KYAE-1 (oesophagus, suspension) | – | – | 0.944 | > 10 | 0.978 | > 5 | 0.956 | > 1.02 | 0.907 | > 10 | 0.877 | > 20 | 0.979 | > 2 | 0.983 | > 20 | 0.838 | 7.85 | 0.577 | 1.67 | 0.323 | 0.194 | 0.944 | > 5 | – | –
9 | MOG-G-CCM (glioma, adherent) | 0.975 | > 2.56 | 0.868 | > 10 | 0.974 | > 5 | 0.959 | > 1.02 | 0.962 | > 10 | 0.919 | > 20 | 0.615 | 0.274 | 0.979 | > 20 | 0.744 | 3.57 | 0.94 | > 16 | 0.531 | 0.79 | 0.759 | 2.03 | – | –
10 | MOLT-13 (T-cell lymphoblastic leukaemia, suspension) | – | – | 0.933 | > 10 | 0.947 | > 5 | 0.989 | > 1.02 | 0.938 | > 10 | 0.866 | 14.3 | 0.981 | > 2 | 0.988 | > 20 | 0.412 | 0.371 | 0.61 | 1.92 | 0.514 | 0.694 | 0.479 | 0.277 | 0.898 | 2.48
11 | NCC021 (kidney, adherent) | – | – | 0.856 | > 10 | 0.981 | > 5 | 0.971 | > 1.02 | 0.911 | > 10 | 0.963 | > 20 | 0.84 | 1.72 | 0.971 | > 20 | 0.775 | 4.63 | 0.836 | 13.2 | 0.789 | 5.36 | 0.953 | > 5 | – | –
12 | NCI-H630 (large intestine, adherent) | 0.988 | > 2.56 | 0.951 | > 10 | 0.971 | > 5 | 0.986 | > 1.02 | 0.986 | > 10 | 0.837 | 14.8 | 0.918 | > 2 | 0.986 | > 20 | 0.821 | 6.38 | 0.932 | > 16 | 0.935 | > 10.2 | 0.956 | > 5 | – | –
